{"source": "PubChem BioAssay AID1030", "about": "(National Center for Advancing Translational Sciences (NCATS), 2008)", "note": "Out of some 220,000 compounds screened, about 16,000 (7.3%) were called active. Inconclusive means that the source gave no clear call. Such entries were picked first, then a sample of the others. Calls follow the shape of the dose curve; as a rule, active = well fitted inhibition curve with a large enough effect (not every such curve was filed as active); inconclusive = small, poorly fitted or top-dose-only effect, or another doubt; inactive = no such curve, though single readings can be large or run the other way. No potency is given beside an inconclusive call; the fits are too rough. Potency is read from the fitted curve at half-maximal effect; tags tell the direction and shape of the fitted curve."}
{"biological_target": "Aldehyde dehydrogenase 1A1 (Homo sapiens) (UniProt P00352)", "sequence (P00352 whole entry, looked up)": "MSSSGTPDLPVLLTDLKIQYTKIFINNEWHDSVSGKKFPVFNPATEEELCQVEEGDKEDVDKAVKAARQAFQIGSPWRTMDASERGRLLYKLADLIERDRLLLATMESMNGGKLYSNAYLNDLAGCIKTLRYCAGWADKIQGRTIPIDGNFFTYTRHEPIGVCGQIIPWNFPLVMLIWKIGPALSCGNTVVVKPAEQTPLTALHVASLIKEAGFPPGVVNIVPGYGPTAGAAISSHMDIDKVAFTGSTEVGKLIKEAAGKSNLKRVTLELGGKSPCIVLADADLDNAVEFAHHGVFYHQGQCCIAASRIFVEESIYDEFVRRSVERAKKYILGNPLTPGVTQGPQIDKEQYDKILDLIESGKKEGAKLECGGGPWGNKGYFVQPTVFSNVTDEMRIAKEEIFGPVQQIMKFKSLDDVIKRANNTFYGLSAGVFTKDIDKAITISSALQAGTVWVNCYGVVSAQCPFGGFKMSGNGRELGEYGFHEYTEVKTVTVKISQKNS", "assay": "qHTS Assay for Inhibitors of Aldehyde Dehydrogenase 1 (ALDH1A1);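 as to activity, negative = inhibition: plate controls were no enzyme wells and a reference inhibitor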", "conditions": "Purified ALDH1A1, NADH fluorescence, propionaldehyde substrate; series mostly up to 75.3 µM; activity, negative = inhibition: at the top concentration"}
{"compound": "Cc1cc(SCNC(=O)c2ccccc2)nc(C(C)C)n1", "Potency": "inconclusive [inhibitor, single point]"}
{"compound": "Cc1cccc(C)c1NC(=O)C1(N(C(=O)c2ccccn2)c2ccc(O)cc2)CCCCC1", "activity, negative = inhibition": "inactive: 4.63%"}
{"compound": "COc1ccc(N/C(=C(/C(Cl)=C(Cl)Cl)[N+](=O)[O-])n2nnc3ccccc32)cc1OC", "Potency": "inconclusive [inhibitor, partial curve]"}
{"compound": "Cn1c(NC(=O)Cc2cccs2)cc(=O)n(C)c1=O", "Potency": "inconclusive [inhibitor, single point]"}
{"compound": "CCSc1nc(N)c(C#N)c(-c2ccccc2Cl)c1C#N", "Potency": "inconclusive [inhibitor, partial curve]"}
{"compound": "CCOc1ncccc1C(=O)Nc1ccc(-c2ccc3nnc(C)n3n2)cc1", "Potency": "inconclusive [inhibitor, partial curve]"}
{"compound": "O=C1OC(c2ccccc2)=NC12CC2c1ccc(Cl)cc1", "note": "(stereo not given)", "Potency": "active: 28.2 µM"}
{"compound": "CC(=O)Nc1ccc(S(=O)(=O)Nc2ccc(C)c([N+](=O)[O-])c2)cc1", "Potency": "inconclusive [inhibitor, single point]"}
{"compound": "COc1ccc(-n2nc(C(=O)NCC(=O)Nc3cccc(NC(C)=O)c3)c3ccccc3c2=O)cc1", "Potency": "inconclusive [inhibitor, single point]"}
{"compound": "O=c1cc(-c2ccccc2O)oc2cc(O)ccc12", "activity, negative = inhibition": "inactive: 3.52%"}
{"compound": "O=C(O)CSc1ncnc2sc3c(c12)CCC3", "Potency": "inconclusive [inhibitor, single point]"}
{"compound": "CC(C)(C)c1ccc(C(=O)Nc2ccc(Cl)cc2)cc1", "activity, negative = inhibition": "inactive: 4.21%"}
{"compound": "COc1cccc(-c2nn(C)c3sc(C(=O)N4CCOCC4)cc23)c1", "Potency": "inconclusive [inhibitor, single point]"}
{"compound": "COc1ccc(NC(=S)N(CCCN2CCOCC2)Cc2cn(C)c3ccccc23)cc1OC", "activity, negative = inhibition": "inactive: -3.65%"}
{"compound": "CCc1cc[n+](CC(=O)Nc2ccc(Cl)cc2Cl)cc1", "activity, negative = inhibition": "inactive: 1.54%"}
{"compound": "COc1cc(OC)cc(C(=O)N[C@H](C(=O)OCC(=O)NC(C)c2ccccc2)C(C)C)c1", "note": "(stereo not given in full)", "Potency": "inconclusive [inhibitor, single point]"}
{"compound": "O=C(NCc1ccco1)C(=O)NCC1OCCN1S(=O)(=O)c1ccc(Br)cc1", "note": "(stereo not given)", "Potency": "inconclusive [inhibitor, single point]"}
{"compound": "COc1cccc(NC(=O)CCC(=O)NCc2ccco2)c1", "activity, negative = inhibition": "inactive: -0.501%"}
{"compound": "COc1ccccc1NC(=O)COC(=O)c1ccc2c(c1)nc(C)n2-c1ccccc1", "Potency": "inconclusive [inhibitor, partial curve]"}
{"compound": "O=C(COC(=O)c1c[nH]c(=O)[nH]c1=O)Nc1ccccc1", "activity, negative = inhibition": "inactive: 13.3%"}
{"compound": "CCN(CC)C(=O)c1cc2cc([N+](=O)[O-])ccc2s1", "activity, negative = inhibition": "inactive: -5.41%"}
{"compound": "N#CC1=C(N)NC(SCC(=O)c2ccc(Br)cc2)=C(C#N)C12CCCCC2", "Potency": "active: 12.6 µM"}
{"compound": "CCc1ccc(NC(=O)CNC(=O)c2cn(-c3ccccc3OC)c(=O)c3ccccc23)cc1", "Potency": "inconclusive [inhibitor, partial curve]"}
{"compound": "Cc1nn(CCO)c2nc(-c3cccs3)cc(C(F)(F)F)c12", "Potency": "inconclusive [inhibitor, partial curve]"}
{"compound": "Cc1cc(C)nc(CC(N)=O)n1", "activity, negative = inhibition": "inactive: 4.01%"}
{"compound": "COc1ccc(C(=O)Nn2c(SCC(=O)NCC3CCCO3)nc3ccccc3c2=O)cc1", "note": "(stereo not given)", "Potency": "inconclusive [inhibitor, partial curve]"}
{"compound": "O=C(/C=C/c1ccc(S(=O)(=O)N2CCOCC2)cc1)NCc1ccc(Cl)cc1", "activity, negative = inhibition": "inactive: 12.1%"}
{"compound": "O=C1CCN=C(Nc2ccc(F)cc2)N1Cc1ccccc1", "Potency": "inconclusive [inhibitor, single point]"}
{"compound": "c1csc(-c2cn3ccc4ccccc4c3n2)c1", "Potency": "active: 5.01 µM"}
{"compound": "COc1ccc(-c2nc(NC(=O)c3[nH]c(C)c(C(C)=O)c3C)sc2C)cc1", "activity, negative = inhibition": "inactive: -4.45%"}
{"compound": "O=C1c2ccccc2C(=O)N1c1cccc(-c2csc(Nc3ccc4c(c3)OCO4)n2)c1", "Potency": "active: 7.08 µM"}
{"compound": "NCCC[C@@H](CC(=O)N[C@@H]1CCCC[C@H]1C(=O)N[C@H](CC(=O)N[C@@H](CCC(=O)O)CC(=O)O)Cc1c[nH]c2ccccc12)NC(=O)C[C@H](Cc1ccccc1)NC(=O)[C@@H]1CNCC[C@H]1N", "activity, negative = inhibition": "inactive: -5.58%"}
{"compound": "Cc1cccc(/C=N/n2c(-c3cc(-c4ccccc4)n[nH]3)n[nH]c2=S)c1", "activity, negative = inhibition": "inactive: -6.52%"}
{"compound": "CC1CC(=O)C2=C(C1)Nc1ccccc1SC2c1ccc(F)cc1", "note": "(stereo not given)", "activity, negative = inhibition": "inactive: 5.63%"}
{"compound": "O=C1CC(c2ccccc2)c2c(O)cc(O)cc2O1", "note": "(stereo not given)", "Potency": "inconclusive [inhibitor, single point]"}
{"compound": "COc1ccc2[nH]c(C)c(C(=O)CN3CCc4cc(OC)c(OC)cc4C3)c2c1", "Potency": "active: 10 µM"}
{"compound": "CCCNC(=O)c1ccc(CNc2c(N3CCC(C(=O)OCC)CC3)c(=O)c2=O)cc1", "Potency": "inconclusive [inhibitor, partial curve]"}
{"compound": "CCC(c1nnnn1Cc1cccs1)N1CCN(c2nc3ccccc3s2)CC1", "note": "(stereo not given)", "Potency": "inconclusive [inhibitor, single point]"}
{"compound": "O=C(c1ccc(Cl)cc1)c1c[nH]c(C(=O)NNc2ccccc2)c1", "Potency": "active: 20 µM"}
{"compound": "COc1ccc(CSc2n[nH]c(C)n2)cc1[N+](=O)[O-]", "Potency": "active: 10 µM"}
{"compound": "Cc1ccc(C2CC2C(=O)NNC(=S)Nc2ccc(Cl)cc2)cc1", "note": "(stereo not given)", "Potency": "active: 8.91 µM"}
{"compound": "CCNc1ncc2nc(-c3ccccc3)c(=O)n(-c3ccc(OC)cc3)c2n1", "Potency": "inconclusive [inhibitor, partial curve]"}
{"compound": "CCCOc1nc(N)c(C#N)c(-c2ccccc2F)c1C#N", "Potency": "active: 1 µM"}
{"compound": "COc1ccc(-c2cc(C3CC3)nc3sc(C#N)c(N)c23)cc1", "Potency": "inconclusive [inhibitor, single point]"}
{"compound": "O=C(c1ccc(C(F)(F)F)cc1)C1CCCN(C(=O)c2csnn2)C1", "note": "(stereo not given)", "activity, negative = inhibition": "inactive: -3.94%"}
{"compound": "CCC(NC(=O)c1cccc(Cn2cc([N+](=O)[O-])cn2)c1)c1ccc(C(C)C)cc1", "note": "(stereo not given)", "Potency": "inconclusive [inhibitor, single point]"}
{"compound": "COc1ccccc1-c1ccc(SCc2cccc(C)c2)nn1", "Potency": "inconclusive [inhibitor, single point]"}
{"compound": "O=C(O)CCC(=O)Nc1sc2c(c1C(=O)Nc1ccccc1)CCCCC2", "Potency": "inconclusive [inhibitor, single point]"}
{"compound": "COC(=O)c1ccc(-c2noc(CN(C)CC3CCCCO3)n2)cc1", "note": "(stereo not given)", "Potency": "inconclusive [inhibitor, single point]"}
{"compound": "COc1cc(C(=S)N2CCCC2)ccc1O", "Potency": "active: 14.1 µM"}
{"compound": "O=[N+]([O-])c1c(NCCCO)cc(SCc2ccco2)c2nonc12", "Potency": "inconclusive [inhibitor, single point]"}
{"compound": "COc1cc(-c2nnc(-c3ccncc3)o2)ccc1OCc1ccccc1", "Potency": "inconclusive [inhibitor, single point]"}
{"compound": "O=C(NNC(=S)Nc1ccc(OC(F)F)cc1)c1cc2c(s1)CCCC2", "Potency": "active: 8.91 µM"}
{"compound": "N#CCCN(C1CCCCC1)S(=O)(=O)CCOc1ccccc1", "Potency": "active: 8.91 µM"}
{"compound": "CC(C)C(=O)Nc1nnc(CSCc2ccccc2F)s1", "activity, negative = inhibition": "inactive: 14.7%"}
{"compound": "O=C(NCC1CCCO1)c1cn(-c2ccccc2)nc1-c1ccccc1", "note": "(stereo not given)", "Potency": "inconclusive [inhibitor, single point]"}
{"compound": "Cc1c(NS(=O)(=O)c2cccc(C(=O)OCC(=O)N(C)C3CCCCC3)c2)c(=O)n(-c2ccccc2)n1C", "activity, negative = inhibition": "inactive: 12.2%"}
{"compound": "O=C(NCCCc1ccccc1)c1ccc(Br)o1", "Potency": "inconclusive [inhibitor, single point]"}
{"compound": "N#CCc1ccc(Oc2ncc(C(F)(F)F)cc2Cl)cc1", "activity, negative = inhibition": "inactive: 3.81%"}
{"compound": "Cc1cccc2nc(CSc3nc4cc([N+](=O)[O-])ccc4s3)cn12", "activity, negative = inhibition": "inactive: -1.25%"}
{"compound": "CC(C)(C)c1ccc(OC(=O)Cn2c(C(F)(F)F)nc3ccccc32)cc1", "activity, negative = inhibition": "inactive: 5.2%"}
{"compound": "C=CCn1c(N)c(C(=O)NCc2ccco2)sc1=S", "Potency": "inconclusive [inhibitor, single point]"}
{"compound": "COC(=O)c1ccc(NC(=S)NCCC2=CCCCC2)cc1", "Potency": "inconclusive [inhibitor, full curve]"}
{"compound": "O=C(NCc1ccccc1)c1cccc(Br)n1", "activity, negative = inhibition": "inactive: -13.2%"}
{"compound": "O=C1NN(c2ccc(F)cc2)C(=O)/C1=C\\C=C\\c1ccco1", "Potency": "inconclusive [inhibitor, partial curve]"}
{"compound": "N#CC(c1nc2ccccc2nc1N1CCCC1)S(=O)(=O)c1cccs1", "note": "(stereo not given)", "Potency": "inconclusive [inhibitor, partial curve]"}
{"compound": "COCCNc1nc(C)nc2c1nc(-c1ccccc1)n2CC1CCN(C)CC1", "Potency": "inconclusive [inhibitor, partial curve]"}
{"compound": "Cc1ccc(Cn2c(Sc3ncccn3)nc3c2c(=O)[nH]c(=O)n3C)cc1", "activity, negative = inhibition": "inactive: -2.29%"}
{"compound": "Cc1c(/C=N/NC(=O)CNc2ccccc2)c2ccccn2c1C(=O)c1ccc(Cl)cc1", "Potency": "inconclusive [inhibitor, single point]"}
{"compound": "O=[N+]([O-])c1ccc(CNC2CCCc3ccccc32)cc1", "note": "(stereo not given)", "Potency": "inconclusive [inhibitor, single point]"}
{"compound": "COc1ccc(N(C(=O)c2ccco2)S(=O)(=O)c2cccc([N+](=O)[O-])c2)cc1", "activity, negative = inhibition": "inactive: -13%"}
{"compound": "CCOc1ccc(OCC(=O)Nc2ccc(OC)cc2)cc1", "Potency": "inconclusive [inhibitor, partial curve, poor fit]"}
{"compound": "O=C(CSc1cnc2ccccc2n1)c1ccc(F)cc1", "Potency": "active: 25.1 µM"}
{"compound": "COc1ccc(CCNc2oc(-c3ccccc3OC)nc2C#N)cc1OC", "Potency": "inconclusive [inhibitor, partial curve]"}
{"compound": "O=c1[nH]cc([N+](=O)[O-])cc1Br", "Potency": "inconclusive [inhibitor, partial curve, poor fit]"}
